To fix the notation:
B1: AGCCCCU (DNA:RNA)
RNA: GGGAGACCGGAAUUCAGAUUGUCCAGCCCCUUUAAAUCCCGUCGUAGCCACCA
DNA 1: CAATCTGAATTCCGGTCTCCC
DNA 2: TGGTGGCTACGACGGGATT
B2: UGCGGGG (DNA:RNA)
RNA: B1 RNA with A25U, C28G, C29G, C30G, U31G
DNA 1: CAATCTGAATTCCGGTCTCCC
DNA 2: TGGTGGCTACGACGGGATT
B3: UCCUUAC (DNA:RNA)
RNA: B1 RNA with A25U, G26C, C28U, C29U, C30A, U31C
DNA 1: CAATCTGAATTCCGGTCTCCC
DNA 2: TGGTGGCTACGACGGGATT
B4: UUUCGGA (DNA:RNA)
RNA: B1 RNA with A25U, G26U, C27U, C29G, C30G, U31A
DNA 1: CAATCTGAATTCCGGTCTCCC
DNA 2: TGGTGGCTACGACGGGATT
B5: GUCAACU (DNA:RNA)
RNA: B1 RNA with A25G, G26U, C28A, C29A
DNA 1: CAATCTGAATTCCGGTCTCCC
DNA 2: TGGTGGCTACGACGGGATT
B6: GGUUAAU (DNA:RNA)
RNA: B1 RNA with A25G, C27U, C28U, C29A, C30A
DNA 1: CAATCTGAATTCCGGTCTCCC
DNA 2: TGGTGGCTACGACGGGATT
B7: GGGAACA (DNA:RNA)
RNA: B1 RNA with A25G, C27G, C28A, C29A, U31A
DNA 1: CAATCTGAATTCCGGTCTCCC
DNA 2: TGGTGGCTACGACGGGATT
B8: CGGUCAG (DNA:RNA)
RNA: B1 RNA with A25C, C27G, C28U, C30A, U31G
DNA 1: CAATCTGAATTCCGGTCTCCC
DNA 2: TGGTGGCTACGACGGGATT
B9: CUCACAG (DNA:RNA)
RNA: B1 RNA with A25C, G26U, C28A, C30A, U31G
DNA 1: CAATCTGAATTCCGGTCTCCC
DNA 2: TGGTGGCTACGACGGGATT
B10: GCUAAAC (DNA:RNA)
RNA: GGGAGACCGGAAUUCAGAUUGUCCGCUAAACUUAAAUCCCGUCGUAGCCACCA
DNA 1: CAATCTGAATTCCGGTCTCCC
DNA 2: TGGTGGCTACGACGGGATT
B11: CAUGUAA (DNA:RNA)
RNA: B10 RNA with G25C, C26A, A28G, A29U, C31A
DNA 1: CAATCTGAATTCCGGTCTCCC
DNA 2: TGGTGGCTACGACGGGATT
B12: ACAAACA (DNA:RNA)
RNA: B10 RNA with G25A, U27A, A30C, C31A
DNA 1: CAATCTGAATTCCGGTCTCCC
DNA 2: TGGTGGCTACGACGGGATT
B13: CUGACCU (DNA:RNA)
RNA: B1 RNA with A25C, G26U, C27G, C28A
DNA 1: CAATCTGAATTCCGGTCTCCC
DNA 2: TGGTGGCTACGACGGGATT
B14: CCCUUAU (DNA:RNA)
RNA: B1 RNA with A25C, G26C, C28U, C29U, C30A
DNA 1: CAATCTGAATTCCGGTCTCCC
DNA 2: TGGTGGCTACGACGGGATT
B15: UACGGAA (DNA:RNA)
RNA: B1 RNA with A25U, G26A, C28G, C29G, C30A, U31A
DNA 1: CAATCTGAATTCCGGTCTCCC
DNA 2: TGGTGGCTACGACGGGATT
B16: AGGAGUC (DNA:RNA)
RNA: B1 RNA with C27G, C28A, C29G, C30U, U31C
DNA 1: CAATCTGAATTCCGGTCTCCC
DNA 2: TGGTGGCTACGACGGGATT
B17: GAUCCCU (DNA:RNA)
RNA: B1 RNA with A25G, G26A, C27U
DNA 1: CAATCTGAATTCCGGTCTCCC
DNA 2: TGGTGGCTACGACGGGATT
B18: AACACGA (DNA:RNA)
RNA: B1 RNA with G26A, C28A, C30G, U31A
DNA 1: CAATCTGAATTCCGGTCTCCC
DNA 2: TGGTGGCTACGACGGGATT
B19: GAUUCCU (DNA:RNA)
RNA: B1 RNA with A25G, G26A, C27U, C28U
DNA 1: CAATCTGAATTCCGGTCTCCC
DNA 2: TGGTGGCTACGACGGGATT
B20: GACUGCG (DNA:RNA)
RNA: B1 RNA with A25G, G26A, C28U, C29G, U31G
DNA 1: CAATCTGAATTCCGGTCTCCC
DNA 2: TGGTGGCTACGACGGGATT

Changes are numbered by the printed parent chain; changes in the protein carry UniProt numbers. This is one part of the list.

The record followed here is publication PMC9911399, “Two distinct binding modes provide the RNA-binding protein RbFox with extraordinary sequence specificity”.

For this assay, the target named is T1, RBFOX1 RRM (Homo sapiens, UniProt Q9NWB1 109-208).
T1 sequence: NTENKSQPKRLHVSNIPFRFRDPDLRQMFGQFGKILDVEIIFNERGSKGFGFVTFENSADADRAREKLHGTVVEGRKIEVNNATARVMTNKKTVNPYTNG
Description: EMSA; HiTS-Eq, 1 nM pool, 10 min; buffer printed only for the single-RNA assays: 10 mM Tris pH 7.5, 150 mM NaCl, 3.4 mM EDTA, 0.001% NP-40, 30 C. To be noted: tags: His6 N-terminal (pET28a); label: 5' 32P. The method in brief:
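Relative association constants, normalised to the cognate motif, were derived by comparing read counts of each RNA species with those of the control reaction. The RNA sequenced was the free fraction, separated by 8% native PAGE after a 10 min equilibration in 50 µL of 1 nM 5′-radiolabelled RNA (7 randomized nucleotides) with increasing concentrations of purified wild-type or mutant RbFox RRM.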
On the technique in general: Mobility shift assays separate free from complexed probe on a gel.
Regarding B1, the binding signal was 0.00333 KA relative to UGCAUGU.

For B2, the binding signal was 0.00891 KA relative to UGCAUGU.

On to B3, for which the binding signal was 0.00825 KA relative to UGCAUGU.

Take B4: the binding signal is 0.00323 KA relative to UGCAUGU.

For B5, the binding signal is 0.00552 KA relative to UGCAUGU.

On to B6, for which the binding signal is 0.00277 KA relative to UGCAUGU.

Turning to B7, the binding signal was 0.0223 KA relative to UGCAUGU.

With B8, the binding signal was 0.0102 KA relative to UGCAUGU.

Regarding B9, the binding signal is 0.00577 KA relative to UGCAUGU.

Take B10: the binding signal is 0.00421 KA relative to UGCAUGU.

B11: the binding signal is 0.0027 KA relative to UGCAUGU.

On to B12, for which the binding signal was 0.000211 KA relative to UGCAUGU.

With B13, the binding signal is 0.00752 KA relative to UGCAUGU.

Consider B14, for which the binding signal is 0.000677 KA relative to UGCAUGU.

Take B15: the binding signal is 0.00943 KA relative to UGCAUGU.

As for B16, the binding signal was 0.0187 KA relative to UGCAUGU.

In the case of B17, the binding signal is 0.00885 KA relative to UGCAUGU.

As to B18, the binding signal was 0.0013 KA relative to UGCAUGU.

As for B19, the binding signal is 0.00855 KA relative to UGCAUGU.

In the case of B20, the binding signal is 0.0225 KA relative to UGCAUGU.
